This passage reports binding signal results from publication PMC7819943, “Rice protein-binding microarrays: a tool to detect cis-acting elements near promoter regions in rice”.

Some of the results follow.

The experiment has as its target T1, OsWOX13 (Oryza sativa, UniProt Q5QMM3 1-267).
T1 sequence: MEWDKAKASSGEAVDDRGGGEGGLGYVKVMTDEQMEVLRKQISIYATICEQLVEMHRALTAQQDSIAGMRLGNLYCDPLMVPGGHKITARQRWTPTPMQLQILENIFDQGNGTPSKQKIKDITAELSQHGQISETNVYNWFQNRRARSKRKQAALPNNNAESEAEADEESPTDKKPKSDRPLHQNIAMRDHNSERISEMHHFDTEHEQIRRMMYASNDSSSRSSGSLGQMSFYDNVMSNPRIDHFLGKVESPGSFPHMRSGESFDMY
In words: protein-binding microarray (RPBM); PBS, 2% BSA, 51.3 ng/ul salmon testes DNA, 50 uM zinc acetate, 200 nM TF, 25 C, 1 h; high values mean tight binding. Conditions: protein: recombinant; tags: N-terminal polyhistidine and DsRed monomer fusion (pET32a); label: CyDye5-dUTP incorporated in the synthesized complementary strand; 3' TTTTT single-stranded linker to array surface; dsDNA, one strand shown. The method in brief:
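Transcription factors were made in E. coli BL21-CodonPlus as N-terminal fusions to a polyhistidine tag and DsRed, then purified on Ni–NTA. After primer extension with Cy5-dUTP and blocking with 2% BSA, a custom Agilent array was exposed for 1 h at 25 °C to 200 nM protein in PBS, 2% BSA, salmon testes DNA and 50 µM zinc acetate. Washed arrays were scanned on an Axon 4000B, and the binding signal is per-feature fluorescence intensity in arbitrary units.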
In the case of “ATGAATTAGATTTCAGTCACATCTGAGGGTCAAGAGAAGCCGGAGTCACCTAGTGCAG”, the binding signal is 3950 fluorescence intensity (a.u.). The same measure for “GACGATTGATGAGTATAAGTCAGTTAGGGTTTACGGACGGCGGAGTCACCTAGTGCAG”: 49500 fluorescence intensity (a.u.). The value for “ATTAACATAAAACTCGTCAATGATTAGCTTGTTTGCAGGGCGGAGTCACCTAGTGCAG” was 21800 fluorescence intensity (a.u.); that for “CCTAATTAATCCATAATTATCAAAAGTTTACTGTAGCATCCGGAGTCACCTAGTGCAG” was 62800 fluorescence intensity (a.u.); that for “TCCGACATGATTTTAATCTTAGCCACATGCTCCATAAAGACGGAGTCACCTAGTGCAG” was 6830 fluorescence intensity (a.u.). Take “CATTTAATTATTCATCTTATTCAAACATGTACTCTAAATACGGAGTCACCTAGTGCAG”: the binding signal is 5260 fluorescence intensity (a.u.). The same measure for “TTAATTCTGAGATTTCTCTGATTGCTTAGTTGTTATATTCCGGAGTCACCTAGTGCAG”: 8090 fluorescence intensity (a.u.); for “TCACGTGACTGGATCCCTCTTCTCTCTCGCGCGAGCGTCGCGGAGTCACCTAGTGCAG”: 6200 fluorescence intensity (a.u.). For “ACCATTTAATAATTAACTCGCACTCCACTTTTATCCAACACGGAGTCACCTAGTGCAG”, the binding signal is 19400 fluorescence intensity (a.u.). With “GAGTGAGAGATTGAATAACCACTAAATGAATATTCTCGAACGGAGTCACCTAGTGCAG”, the binding signal is 15400 fluorescence intensity (a.u.).

As for “GCAAGGAAAATAATTGATCATTGTTCATGAGTGTCGTGTTCGGAGTCACCTAGTGCAG”, the binding signal was 7320 fluorescence intensity (a.u.).

Regarding “TGTAATATATTGACATGCAATCATTTTGCGCATTCGTGAACGGAGTCACCTAGTGCAG”, the binding signal was 21400 fluorescence intensity (a.u.). The same measure for “ATTAATTATGCTGTACTATTCTTTGTTTTCAGAAATTGAACGGAGTCACCTAGTGCAG”: 13600 fluorescence intensity (a.u.); for “CTAGATGTCCTTAATTTCAACTTGCTCGATCGTGGTCCATCGGAGTCACCTAGTGCAG”: 3470 fluorescence intensity (a.u.); for “TGGTCCTTTACATTGCAATTAATTTGTTTGGAATTTATTACGGAGTCACCTAGTGCAG”: 8240 fluorescence intensity (a.u.). The same measure for “CTTGATCAATTCAATTTTGCACAACGTCCATCTTTGGCATCGGAGTCACCTAGTGCAG”: 16400 fluorescence intensity (a.u.); for “ATATATAAATTTCGGGCCAAATTAGATGATGGGTATAGAACGGAGTCACCTAGTGCAG”: 7130 fluorescence intensity (a.u.); for “CTAGCGCTGATTTTGTGATGTGATGTCTCTCTTGTCTCCACGGAGTCACCTAGTGCAG”: 5850 fluorescence intensity (a.u.). “TGGGTAAATAGGATTGAAGCAAAATAGGTGAGGAAGCCAACGGAGTCACCTAGTGCAG”: the binding signal was 3790 fluorescence intensity (a.u.). Take “GATGAAACATATATTGACTGTAACATGTAGATTACATGATCGGAGTCACCTAGTGCAG”: the binding signal is 6110 fluorescence intensity (a.u.). The same measure for “AGTTATCATTTAATTAATCATATGCTAATGAGCCACCGCACGGAGTCACCTAGTGCAG”: 13600 fluorescence intensity (a.u.).

On to “AATGTTATCAATCATGTAAGTTCCATATATCAAATCAAACCGGAGTCACCTAGTGCAG”, for which the binding signal is 16500 fluorescence intensity (a.u.). For the sequence “CAATTTACAATAATTAATTTATTGTTAACTCTCGAGTATTCGGAGTCACCTAGTGCAG”, the binding signal is 28700 fluorescence intensity (a.u.). As for “TGTTGATTATAATTAAACACAACAAACAGACTCGAAGCAACGGAGTCACCTAGTGCAG”, the binding signal was 48200 fluorescence intensity (a.u.). The value for “TTTAATGGCAAAATTGATGGTGCCAAACCGAGTCAAACTTCGGAGTCACCTAGTGCAG” was 27700 fluorescence intensity (a.u.); that for “AGATAATTTGTGATTGATGTCATAGTAGTAGAGAAAACCACGGAGTCACCTAGTGCAG” was 46800 fluorescence intensity (a.u.); that for “ATTAATTAAAGGAGGAAACGCAGGGAAAGACATGGGTATACGGAGTCACCTAGTGCAG” was 6230 fluorescence intensity (a.u.). For the sequence “GTTTGCTAATTAACGCGGGCAAGATCGAACACGGCCATGTCGGAGTCACCTAGTGCAG”, the binding signal was 17000 fluorescence intensity (a.u.). Turning to “TTAAATTATTCTTTTAATAAATAAAACGAACGATACAATGCGGAGTCACCTAGTGCAG”, the binding signal is 11300 fluorescence intensity (a.u.). The same measure for “AGCCATAATTTATACTAATTAACAATAAAATAGGGTAATTCGGAGTCACCTAGTGCAG”: 33200 fluorescence intensity (a.u.). With “CTTCCAAATTAACACGATTCTTCTTGCTGCGTTTGCTGATCGGAGTCACCTAGTGCAG”, the binding signal is 4670 fluorescence intensity (a.u.). “TGCAATGATTATTCAGAAGTGGATTATGAATCATGTTTAACGGAGTCACCTAGTGCAG”: the binding signal was 8930 fluorescence intensity (a.u.). The value for “ACCATGTCATTATAATTTTATAAAATTTAAGATATGATATCGGAGTCACCTAGTGCAG” was 5070 fluorescence intensity (a.u.); that for “GGGTTGTTAATTGTATTGTATTTCTATCACAATTATGATTCGGAGTCACCTAGTGCAG” was 17000 fluorescence intensity (a.u.). The value for “AAAAGCCAATCAGGGCCCGTGCGTGCCAGCAAGTATTATGCGGAGTCACCTAGTGCAG” was 3620 fluorescence intensity (a.u.). For “TTTGATTTGTTAATCCAGCTAGTCGTGGGGAATAGTGAAGCGGAGTCACCTAGTGCAG”, the binding signal is 42700 fluorescence intensity (a.u.). The same measure for “GGAGGTGATGCATAAATCAATTCAAAATGTAACCGCGTGACGGAGTCACCTAGTGCAG”: 4890 fluorescence intensity (a.u.); for “CCTGATTTTGTAAGTTAAAGGATATGGTATGATGTTTCTGCGGAGTCACCTAGTGCAG”: 25500 fluorescence intensity (a.u.).

With “CCCTAAATCATCAATATCAACAGAGATGAAACAACAATGTCGGAGTCACCTAGTGCAG”, the binding signal was 3890 fluorescence intensity (a.u.). The value for “TCATCAAATCAATAATTGATTATATTTTCAAAATAAATTTCGGAGTCACCTAGTGCAG” was 19700 fluorescence intensity (a.u.); that for “TTAATTATTTGAGCAAATTTAATGGGATGAGGGAATGATGCGGAGTCACCTAGTGCAG” was 24800 fluorescence intensity (a.u.). For “CATCTAAATTAGTACGAATCATACTCAGATATCCATAATACGGAGTCACCTAGTGCAG”, the binding signal was 9670 fluorescence intensity (a.u.). In the case of “CTTATCCGGCTAACTGACGATAATTATCTTTGAATGCAACCGGAGTCACCTAGTGCAG”, the binding signal was 13900 fluorescence intensity (a.u.). On to “GAAAATGTTCCATCTGATTATAAATTATTATATTTTGGGACGGAGTCACCTAGTGCAG”, for which the binding signal was 4000 fluorescence intensity (a.u.). The same measure for “AACCCTAATCACGCCTAAAAGATATTTATCCCCATCAAACCGGAGTCACCTAGTGCAG”: 7220 fluorescence intensity (a.u.). The same measure for “GCTTTATTGAAACTCAATCAATTAAACTAAGATGATAAAACGGAGTCACCTAGTGCAG”: 8520 fluorescence intensity (a.u.).

“ATCAAGTGATTATTGCTACTGTCCTTTCAACTTGTGCTCACGGAGTCACCTAGTGCAG”: the binding signal is 15700 fluorescence intensity (a.u.). The same measure for “ATTAGATCAACCAGATTGACTGATCACTTGGGCATGTTGGCGGAGTCACCTAGTGCAG”: 19700 fluorescence intensity (a.u.); for “TCATGATTTCTAATATATATATATATATATTTAAGTGAATCGGAGTCACCTAGTGCAG”: 8640 fluorescence intensity (a.u.); for “TGGTTAAATGTCAATTTTCTCGTTGGGAGTTGGGAGGGATCGGAGTCACCTAGTGCAG”: 18500 fluorescence intensity (a.u.). Regarding “ATAATTGATTGCTTTTGATGATTTCACCCTTATTTTGCTGCGGAGTCACCTAGTGCAG”, the binding signal is 65100 fluorescence intensity (a.u.). The value for “AAATAATGTACAAAAGGTGATAGATGAAACAATAAAGTAGCGGAGTCACCTAGTGCAG” was 4460 fluorescence intensity (a.u.). With “GTCTGCTCATTTAATTGGTTTATAAGTGAGTTTACGGTCTCGGAGTCACCTAGTGCAG”, the binding signal is 11600 fluorescence intensity (a.u.). The same measure for “TCGATGATGTCACTGTCTTAATTGTCCCAAAATATATTTTCGGAGTCACCTAGTGCAG”: 8090 fluorescence intensity (a.u.).
